From PubChem BioAssay (NCATS)
“And” between values parts separate entries of the source, which are not always exact repeats. Equal entries are not always repeated. This list was built around the results that the source calls inconclusive (neither active nor inactive); the mix of calls is not that of the screen. For part of these data: Potencies of inconclusive entries are doubtful fits and often do not repeat. The source made the active and inactive calls. Unless noted, calls follow the shape of the dose curve; as a rule, active = well fitted curve in either direction with a large enough effect (not every such curve was filed as active); inconclusive = small, poorly fitted or top-dose-only effect, or another doubt; inactive = flat fitted curve, though single readings scatter.

Test system: not listed separately
Experiment: AP1 Signaling Pathway (AID 357);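 also: ME-180 reporter cells stimulated with EGF at its EC50 level; top concentration of the series differs between compounds; % is scaled to controls: 0 for no effect and ±100 for the full control effect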
Conditions: ME-180 (cervical carcinoma) AP-1-bla reporter, EGF-induced, beta-lactamase ratio, 5 h; at 7.69 µM (top of the series) unless noted
Summary of the method: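 AP-1-bla ME-180 cells, Opti-MEM + 0.5% dialyzed FBS, plated overnight 37 °C. Cpd titration + EC50 EGF, 5 h 37 °C. CCF4 2.5 h RT; ex 405, em 460/530 ratio → %activity, AC50.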

Row | Compound | activity change, negative = inhibition
1 | COc1ccc(-n2c(=O)c(-c3cc(F)cc(F)c3)nc3cnc(N(C)C)nc32)cc1 | inconclusive: 36.2% [activator]
2 | COCCNc1ncnc2ccc(-c3ccc(N(C)C)cc3)cc12 | inactive: -29.4%
3 | CC(Cc1ccc(O)c(O)c1)C(C)Cc1ccc(O)c(O)c1 (stereo not drawn) | inconclusive: -46.1% [inhibitor] [at 17.2 µM]
4 | CC1(C)Cc2c(C#N)c(N3CCN(C(=O)c4ccco4)CC3)nc(-c3ccco3)c2CS1 | inconclusive: -33% [inhibitor] [at 17.2 µM]
5 | O=C(c1cccc(F)c1)N1CCC2(CCN(Cc3cc(C(F)(F)F)cc(C(F)(F)F)c3)CC2)CC1 | inconclusive: 38.7% [activator]

Target: Cytochrome P450 1A2 (Homo sapiens) (UniProt P05177)
Experiment: p450-cyp1a2 (AID 410; calls by dose curve; also: potency is read from the fitted curve at half-maximal effect;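 as to activity change, negative = inhibition: top concentration of the series differs between compounds; -100% = full effect of reference inhibitor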)
Conditions: recombinant CYP1A2, luciferin-ME demethylation, luminescence; series mostly up to 57 µM
Summary of the method: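 20nM CYP1A2, 100uM Luciferin-ME (=Km), 100mM KPO4; cpd 10 min RT; +NADPH regen, 60 min RT; stop/detect 20 min; luminescence. Normalized to furafylline 57 uM = full inhibition.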

UniProt P05177, sequence (P05177 whole entry, looked up): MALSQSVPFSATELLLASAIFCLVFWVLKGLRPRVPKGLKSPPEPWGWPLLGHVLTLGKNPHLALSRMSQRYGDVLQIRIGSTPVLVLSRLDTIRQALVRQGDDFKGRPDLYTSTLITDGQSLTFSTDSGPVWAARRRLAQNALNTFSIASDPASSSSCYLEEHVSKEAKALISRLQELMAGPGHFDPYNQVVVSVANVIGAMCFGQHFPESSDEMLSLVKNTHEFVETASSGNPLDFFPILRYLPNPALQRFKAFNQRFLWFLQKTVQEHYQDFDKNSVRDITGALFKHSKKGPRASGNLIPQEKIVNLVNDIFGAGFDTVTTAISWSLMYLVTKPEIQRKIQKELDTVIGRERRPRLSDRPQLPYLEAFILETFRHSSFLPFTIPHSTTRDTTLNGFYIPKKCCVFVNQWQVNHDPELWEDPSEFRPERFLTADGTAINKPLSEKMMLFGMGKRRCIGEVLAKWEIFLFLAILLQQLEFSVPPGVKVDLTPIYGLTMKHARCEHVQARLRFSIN

Row | Compound | Potency
6 | COCC(=O)N1CCC2(CC1)CCN(C(=O)Nc1cccc(C#N)c1)CC2 | inactive
7 | COC(=O)C1=C(C)NC(C)=C([N+](=O)[O-])[C@H]1c1ccccc1C(F)(F)F | inconclusive: 6.31 µM [decreasing] and inconclusive: 31.6 µM [decreasing]
8 | O=C(c1cccc(F)c1)N1CCC2(CCN(Cc3cc(C(F)(F)F)cc(C(F)(F)F)c3)CC2)CC1 | inactive

Test system: not listed separately
Experiment: NFAT Signaling Pathway (AID 444);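 also: carbachol stimulus at about its EC50 of 1 µM final; % is scaled to controls: 0 for no effect and ±100 for the full control effect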
Conditions: Jurkat NFAT-bla M1, carbachol, beta-lactamase ratio, 5 h; at 7.69 µM (top of the series) unless noted
Summary of the method: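 Read-out: CCF4 FRET ratio (460 nm/530 nm) after 1 h RT dye loading, used for %activity and AC50 from titration series. Cells: Jurkat NFAT-β-lactamase/M1 line, treated with compound plus 1 uM carbachol for 5 h, 37 °C.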

Row | Compound | activity change, negative = inhibition
9 | CN(C)c1ncnc2ccc(-c3cccc(NS(C)(=O)=O)c3)cc12 | inconclusive: 38% [activator]
10 | CC(Cc1ccc(O)c(O)c1)C(C)Cc1ccc(O)c(O)c1 (stereo not drawn) | inconclusive: -39.9% [inhibitor] [at 17.2 µM]
11 | COCC(=O)N1CCC2(CC1)CCN(C(=O)Nc1cccc(C#N)c1)CC2 | inactive: -11.9%
12 | CC1(C)Cc2c(C#N)c(N3CCN(C(=O)c4ccco4)CC3)nc(-c3ccco3)c2CS1 | inconclusive: -70.7% [inhibitor] [at 17.2 µM]
13 | COc1ccc(CNc2nc(-c3ccc4c(c3)OCO4)nc3ccccc23)c(OC)c1 | inconclusive: -33.4% [inhibitor]
14 | Cc1noc(C)c1C(=O)N1CCC2(CCN(Cc3ccc(C#N)cc3)CC2)CC1 | inconclusive: -69.6% [inhibitor]
15 | COc1ccc(C(=O)N2CCC3(CC2)CN(c2cccc(-c4ccccc4)c2)C3)cc1 | inconclusive: -35.4% [inhibitor]
16 | O=C(c1cccc(F)c1)N1CCC2(CCN(Cc3cc(C(F)(F)F)cc(C(F)(F)F)c3)CC2)CC1 | inconclusive: -51.8% [inhibitor]
17 | c1ccc(NN(Cc2cnccn2)c2ccccc2)cc1 | inactive: -17.6%
18 | O=C(c1cccc(F)c1)N1CCC2(CC1)CN(c1cccc(-c3ccccc3)c1)C2 | inconclusive: -32.7% [inhibitor]
